# Target: the molecule itself
# Assay: fluorescence correlation spectroscopy (FCS); in the cytosol of living HeLa cells 24 h after transfection, 36 °C, low expression; oligomer size from the diffusion coefficient by the length-scale dependent viscosity model (Eq. 1); KD: tetramer to dimers, calculated for each cell from the FCS amplitudes (Eq. 2); excess of endogenous untagged Drp1, one subunit tagged in each oligomer
row,Protein,stoichiometry N
1,"EGFP-tagged Drp1 mutant G363D (natural protein, Dynamin-related protein 1 (Drp1), isoform 1 (transcript variant 1), cDNA from Origene (RG221708), with G363D made by QuikChange site-directed mutagenesis; In pmEGFP-C1 (Addgene 36412), as m1; also called EGFP-G363D-Drp1; G363D-Drp1; source: HeLa (Kyoto) cells, transfected, measured in the cytosol of living cells) not shown",2
2,"EGFP-tagged Drp1 mutant C505A (natural protein, Dynamin-related protein 1 (Drp1), isoform 1 (transcript variant 1), cDNA from Origene (RG221708), with C505A made by QuikChange site-directed mutagenesis; In pmEGFP-C1 (Addgene 36412), as m1; also called EGFP-C505A-Drp1; C505A-Drp1; source: HeLa (Kyoto) cells, transfected, measured in the cytosol of living cells) not shown",2

# From PMC6459820, “Determination of oligomerization state of Drp1 protein in living cells at nanomolar concentrations” (Scientific Reports, 2019)
